According to PMC4336329 (PLoS ONE, 2015):
The campaign covered roughly 310,000 compounds. About 2,200 (0.71%) showed an effect of 50% or more. The effect is printed as a negative number. The list shows a part of the results.

target: human ether-à-go-go-related gene (hERG) potassium channel (human, UniProt Q12809); experiment: primary screen, population patch clamp on CHO cells stably expressing hERG
Sequence (Q12809 whole entry, looked up): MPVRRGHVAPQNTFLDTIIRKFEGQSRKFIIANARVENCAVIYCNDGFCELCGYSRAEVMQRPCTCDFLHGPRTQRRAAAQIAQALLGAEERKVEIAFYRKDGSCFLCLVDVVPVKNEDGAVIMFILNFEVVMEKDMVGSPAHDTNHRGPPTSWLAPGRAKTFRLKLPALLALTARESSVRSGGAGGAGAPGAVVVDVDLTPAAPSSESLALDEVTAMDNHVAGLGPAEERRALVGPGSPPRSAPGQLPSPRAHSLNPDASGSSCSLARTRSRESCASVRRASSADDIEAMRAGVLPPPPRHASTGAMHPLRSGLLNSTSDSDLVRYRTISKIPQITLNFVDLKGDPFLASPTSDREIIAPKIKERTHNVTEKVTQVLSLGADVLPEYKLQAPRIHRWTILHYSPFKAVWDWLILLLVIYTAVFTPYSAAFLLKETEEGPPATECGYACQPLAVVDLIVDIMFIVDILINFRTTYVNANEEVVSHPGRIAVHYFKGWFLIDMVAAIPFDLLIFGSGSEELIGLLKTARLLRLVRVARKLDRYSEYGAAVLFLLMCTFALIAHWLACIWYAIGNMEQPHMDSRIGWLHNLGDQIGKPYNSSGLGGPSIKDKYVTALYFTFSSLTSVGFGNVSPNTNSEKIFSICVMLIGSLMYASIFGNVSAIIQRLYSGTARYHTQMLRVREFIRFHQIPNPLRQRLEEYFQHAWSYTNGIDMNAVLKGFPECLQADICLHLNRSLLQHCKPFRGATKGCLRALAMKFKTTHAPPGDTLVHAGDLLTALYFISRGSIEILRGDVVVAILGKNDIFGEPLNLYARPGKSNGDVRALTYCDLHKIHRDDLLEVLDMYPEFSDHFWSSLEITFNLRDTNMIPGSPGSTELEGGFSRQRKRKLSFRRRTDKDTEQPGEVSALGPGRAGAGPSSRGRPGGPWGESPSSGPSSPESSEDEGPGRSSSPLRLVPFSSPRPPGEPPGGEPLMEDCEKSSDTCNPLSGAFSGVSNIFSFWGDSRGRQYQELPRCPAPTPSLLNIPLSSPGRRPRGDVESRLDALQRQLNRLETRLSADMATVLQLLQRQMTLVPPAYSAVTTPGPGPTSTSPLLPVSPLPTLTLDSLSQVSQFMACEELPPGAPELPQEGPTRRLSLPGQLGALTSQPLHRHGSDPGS

| SMILES | hERG current change (%, negative = inhibition) at 1uM [%] |
| --- | --- |
| Cn1ccc(C(=O)OCC(=O)c2ccccc2)n1 | 5.98 |
| Cc1ccc(C(=O)NCCCc2ccccc2)s1 | 2.48 |
| Cc1ccc([N+](=O)[O-])cc1NC(=O)c1c(-c2ccccc2)noc1C | 4.13 |
| C=CCOc1c(Cl)cc(CNc2nccs2)cc1OC | -13.7 |
| CCOC(=O)N1CCC(N2C(=O)c3ccc(C(=O)NCCOC)cc3C2=O)CC1 | 13.2 |
| CN(C)S(=O)(=O)N1CCN(C(=O)c2ccc3c(c2)OCO3)CC1 | 7.09 |
| COc1ccc(NC(=O)CC2C(=O)NCCN2C(=O)c2ccc(N(C)C)cc2)cc1 (centres unmarked) | 1.73 |
| CCCS(=O)(=O)N1CCN(Cc2ccc3c(c2)c2ccccc2n3CC)CC1.O=C(O)C(=O)O | 8.61 |
| Cc1ccc(C)c(OCCC(=O)NCCc2ccc(Cl)cc2)c1 | 13.4 |
| Cc1c(C(=O)N2CCc3ccccc32)cnn1C | 7.87 |
| O=C(COC(=O)c1ccc(OC(F)F)cc1)NCCNC(=O)COC(=O)c1ccc(OC(F)F)cc1 | -0.242 |
| CN(Cc1cccc([N+](=O)[O-])c1)Cc1cccc2ccccc12 | 17 |
| CC(C)(C)OC(=O)NCCc1nnc(SCc2cccc(Cl)c2)o1 | 9.96 |
| COC(=O)[C@@H]1C[C@H]2CC[C@H](O)C[C@H]2N1Cc1ccc(C)s1 | 10.1 |
| COc1cccc(C(=O)N2CCN(CCCc3ccccc3)CC2)c1OC.O=C(O)C(=O)O | -4.87 |
| CN(Cc1nc2ccccc2c(=O)[nH]1)C(=O)COc1ccccc1Cc1ccccc1 | -2.86 |
| COc1ccc2nc3cccc(OC)c3nc2c1 | 4.15 |
| Cc1ccccc1C(=O)c1cccn1CC(=O)NCc1ccc2c(c1)OCO2 | 17.8 |
| COc1ccc(C2=NS(=O)(=O)N(C)C(C(=O)N3CCC(C)CC3)=C2)cc1 | -13.6 |
| COC(CNC(=O)C1CCCN1C(=O)OCc1ccccc1)OC (centres unmarked) | -8.76 |
| O=C1C2C3C=CC(C4CC34)C2C(=O)N1/N=C/c1ccc([N+](=O)[O-])o1 (centres unmarked) | 8.06 |
| O=C(NCCn1cc(SCC(=O)N2CCOCC2)c2ccccc21)c1ccccc1 | 3.53 |
| O=C(Nc1ccc2c(c1)CCC2)c1ccccc1 | 17.8 |

| SMILES | hERG current change (%, negative = inhibition) at 1uM [%] |
| --- | --- |
| CCOc1ccccc1-c1nc(-c2ccc(NC(=O)c3ccc(Br)o3)cc2)no1 | 3.19 |
| CC(C)n1nnnc1SCC(=O)NCCc1ccccc1 | 7.75 |
| COc1ccc(C(C(=O)Nc2ccc(C(C)C)cc2)N(C)C(=O)c2ccc(=O)[nH]c2)cc1 (centres unmarked) | 10.8 |
| CC(C)CCC(C)NC(=O)Cc1ccc(S(=O)(=O)N2CCOCC2)s1 (centres unmarked) | 19 |
| CCOCc1nnc(NC(=O)C2CC(=O)N(CCc3ccc(F)cc3)C2)s1 (centres unmarked) | 12.4 |
| Nc1[nH]c(=O)ncc1F | 14.5 |
| CCC1CCc2sc(C(=O)NCC(c3ccc(OC)cc3)N3CCOCC3)cc2C1 (centres unmarked) | 22 |
| O=C(Nc1nnc(Cc2ccccc2)s1)c1ccccc1 | 6.76 |
| Cc1cc(NS(=O)(=O)c2ccc(NC(=O)/C=C/c3ccco3)cc2)nc(C)n1 | 6.56 |
| O=S(=O)(Cc1noc(-c2ccc(Cl)cc2)n1)Cc1ccco1 | 5.41 |
| CN1CCC(C2(O)c3ccccc3CCc3ccccc32)CC1 | -6.78 |
| COc1ccccc1NS(=O)(=O)c1ccc(O)c(C(N)=O)c1 | 1.68 |
| O=C(CCCCCNc1nc(=S)[nH]c2ccccc12)NCCC1=CCCCC1 | 2.18 |
| CC1CCC(NC(=O)C2CCN(c3nc4ccccc4s3)CC2)CC1 (centres unmarked) | 13.9 |
| O=C(N=C1SC2CS(=O)(=O)CC2N1Cc1ccccc1Cl)C1CCCO1 (centres unmarked) | 20.4 |
| CC(=O)Nc1c(C(=O)N2CCOCC2)sc2nc3c(cc12)COC(C)(C)C3 | 11.4 |
| CCC1=NN2C(=N)/C(=C\c3cccn3-c3cccc(Cl)c3)C(=O)N=C2S1 | 10.3 |
| Cn1c(C(=O)NC2CCCCC2)cc2c(=O)n3ccccc3nc21 | 13.4 |
| CCOc1ccc(CCNC(=O)CN2CCN(Cc3ccccc3C)C2=O)cc1OCC | 7.86 |
| Cc1ccc(NC(=O)CCN2C(=O)C3CCCCC3C2=O)c(O)c1 (centres unmarked) | 7.67 |
| O=C(CCOc1ccccc1)Nc1ccnn1C1CCN(C(=O)CCC(F)(F)F)CC1 | 9.1 |
| CN(C)c1ccc(C(=S)N2CCN(c3ccccc3)CC2)cc1 | 16.4 |
| COc1ccc(S(=O)(=O)NCCc2cn3nc(C)c(C)nc3n2)cc1 | 16.1 |

| SMILES | hERG current change (%, negative = inhibition) at 1uM [%] |
| --- | --- |
| CCN(CC)S(=O)(=O)c1ccc(NC(=O)COC(=O)CN2C(=O)c3ccccc3C2=O)cc1 | -1.65 |
| FC(F)C(F)(F)C(F)(F)C(F)(F)c1cc(-c2ccccc2)n[nH]1 | 9.58 |
| COc1ccc(C2CC2/C(=N/OC(=O)c2cccs2)c2ccccc2)cc1 (centres unmarked) | 8.59 |
| O=C(CN1CCN(Cc2ccccc2)CC1)c1c[nH]c2ccccc12 | -23.3 |
| O=C(C(=O)N1CCOCC1)c1cn(Cc2ccccc2F)c2ccccc12 | 7.14 |
| Cc1ccc(CNC(=O)CN2C(C)CCCC2C)cc1 (centres unmarked) | 0.127 |
| CCN(CC)C(=O)Cn1c(=O)n(-c2ccc(CC(=O)NCc3ccccc3)cc2)c(=O)c2sccc21 | 9.06 |
| CNC(=S)N1CCc2cc(OC)c(OC)cc2C1 | 2.67 |
| COc1cc(OC)c(OC)cc1/C=N/NC(=O)c1ccc(=O)n(C)c1 | 10.2 |
| CC(OC(=O)Cc1c(F)cccc1Cl)C(=O)NCCC1=CCCCC1 (centres unmarked) | 3.96 |
| COc1cccc(-c2nnn(CC(C)=O)n2)c1 | 1.66 |
| S=C(NCc1ccncc1)Nc1ccc(Cl)cc1 | 5.24 |
| CN(C)S(=O)(=O)c1ccc(-c2csc(-c3cccnc3)n2)cc1 | 9.09 |
| CN(C)C(=O)[C@H]1C[C@H]1[C@@H](O)[C@H](CO)NC(=O)[C@H](COCc1ccccc1)NC(=O)OC(C)(C)C | 12.7 |
| Cc1ccccc1NS(=O)(=O)c1cc(C(=O)NCc2ccco2)ccc1C | 4.24 |
| O=C(Nc1cccc(C(=O)O)c1)/C(=C/c1ccc([N+](=O)[O-])cc1)NC(=O)c1ccccc1 | 2.55 |
| Cn1cc(CC(=O)NCCCN2CCCC2=O)c2ccccc21 | 11.7 |
| Cc1ccccc1CSCC(=O)NC(=O)NC(C)(C)C | -1.26 |
| CC(=O)c1ccc(N2CCN(C(=O)c3ccc(OCc4c(C)noc4C)cc3)CC2)cc1 | 11.9 |
| COc1ccc(/C=C2\CN(Cc3ccccc3)C/C(=C\c3ccc(OC)c(O)c3)C2=O)cc1O | 13.1 |
| CCC(=O)N1CCc2cc(Br)cc(S(=O)(=O)Nc3c(C)n(C)n(-c4ccccc4)c3=O)c21 | 13.7 |
| COc1ccc(Cn2c(C)c(C)c(C#N)c2NC(=O)Nc2cccc(C)c2)cc1 | 14.2 |
| CCN(C(=O)CSc1nnc(-c2ccncc2)n1C)C1CCS(=O)(=O)C1 (centres unmarked) | 11.6 |

| SMILES | hERG current change (%, negative = inhibition) at 1uM [%] |
| --- | --- |
| Cc1ccc(NC(=O)C2CCN(S(=O)(=O)c3cnc[nH]3)CC2)nc1 | 12.7 |
| Cc1cc2nc(/N=C(\N)NC(=O)C(C)C)nc(C)c2cc1C | 21 |
| C[C@@H]1CN(Cc2nc(-c3ccc(Cl)cc3)no2)C[C@H](C)O1 | 3.41 |
| CC1=CCC2C(=O)N(c3cccc(C(=O)Nc4ccc(Cl)cc4)c3)C(=O)C2C1 (centres unmarked) | 3.06 |
| CCN(CC)C(=O)CSc1nc(O)c(Cc2ccc(OC)cc2)c(=O)[nH]1 | 15.2 |
| N#Cc1nc(-c2ccco2)oc1N1CCc2ccccc2C1 | 13.4 |
| CCOc1ccc(CCNC(=O)C(CC)n2nc(C)n3c(cc4sccc43)c2=O)cc1OCC (centres unmarked) | -1.76 |
| COC(=O)c1sc(NC(=O)c2ccc(Cn3cc(Cl)cn3)o2)c(C#N)c1C | 9.46 |
| O=CC(Br)P(=O)(N1CCOCC1)N1CCOCC1 (centres unmarked) | 11.5 |
| Cc1ccc(S(=O)(=O)N2CCCCC2)cc1NC(=O)CSc1ncnc2ccccc12 | -0.402 |
| CC(C)N1CCC(N2CCN(Cc3ccc4nsnc4c3)CC2CCO)CC1 (centres unmarked) | 5.31 |
| O=C(CSc1nccn(-c2ccc(Br)cc2)c1=O)NC1CCCC1 | 9.58 |
| COCCSc1nnc(NS(=O)(=O)Cc2ccccc2)s1 | 6.31 |
| O=C(Nc1ccccc1)c1c(O)[nH]c(=O)[nH]c1=O | 13 |
| COc1cc(C(O)P(=O)(OCC(C)C)c2ccc(N(C)C)cc2)cc(OC)c1OC (centres unmarked) | 10.6 |
| Cc1nc(C)n(C(C)CC(=O)O)n1 (centres unmarked) | 10.9 |
| O=C(CSCc1c[nH]c(=O)[nH]c1=O)OCC(=O)c1ccc(Br)cc1 | 13.4 |
| CC(=O)Nc1ccc(S(=O)(=O)NCCC(=O)N2CCN(C(c3ccccc3)c3ccccc3)CC2)cc1 | 3.9 |
| O=C(NCCc1ccccc1)Nc1ccc(Cl)cc1 | 14.1 |
| CCc1nnc(N/N=C/c2cc(Br)c(O)cc2O)n1N | 13.6 |
